In PubChem BioAssay AID1963576 (National Center for Advancing Translational Sciences (NCATS), 2024):
Out of some 46,000 compounds screened, about 60 (0.1%) were called active. Another 3% or so got no clear call; they are omitted. Calls follow the shape of the dose curve; as a rule, active = well fitted inhibition curve with a large enough effect; inconclusive = small, poorly fitted or top-dose-only effect; inactive = no such curve, though single readings can be large or run the other way. Some of the results follow.

assay: Primary qHTS assay for Inhibitors of ovarian cancer metastasis using an organotypic tumor microenvironment (TME) model.; also: nearly all actives have a fitted effect of over 65% in size;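 as to activity change, negative = inhibition: plate controls were DMSO wells for no effect and tomatine positive control wells for full effect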; conditions: SKOV3ip1-GFP adhesion/invasion on 3D omental model, fluorescence; series mostly up to 45.8 µM; activity change, negative = inhibition: at the top concentration
How it was run: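 Adhesion/invasion was scored as fixed GFP-labeled SKOV3ip1 cell counts (488/509 nm), normalized to DMSO and tomatine controls. Cancer cells in serum-free medium, with four compound doses (0.36-46 umol/L), sat 2 hr at RT then 16 hr at 37 C on a 48 hr fibroblast/mesothelial/ECM culture.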

| Compound | outcome | activity change, negative = inhibition |
| --- | --- | --- |
| COc1cccc(-c2nc(SCC(=O)NC3CCCC3)c(-c3ccc(F)cc3)[nH]2)c1 | inactive |  |
| CC1CCN(S(=O)(=O)c2ccc3nc(Nc4cccc(C(F)(F)F)c4)ccc3c2)CC1 |  | inactive: -18.4% |
| Cc1ccc(CNC(=O)c2nc(S(=O)(=O)Cc3ccc(C)cc3)ncc2Cl)cc1 |  | inactive: -9.4% |
| COc1cc(-c2nnc(SCC(=O)Oc3ccc(C)cc3C)o2)cc(OC)c1OC | inactive |  |
| CCOC(=O)C1(C)C=C(Nc2cccc(C)c2)C(=O)N1c1ccccc1 (stereo not given) |  | inactive: -20.4% |
| COc1ccc(NC(=O)CN(c2ccccc2OC)S(C)(=O)=O)c(OC)c1 | inactive |  |
| Cc1cc(C)cc(NC(=O)CCCn2nc(C)c3c(C)n(-c4ccccc4)nc3c2=O)c1 |  | inactive: -9.77% |
| COc1cc(NC(=O)CCc2c(C)nc3c4c(C)cc(C)nc4nn3c2C)cc(OC)c1 |  | inactive: 6.64% |
| COC(=O)c1ccc(Nc2ncnc3c2cnn3-c2ccccc2)cc1 |  | inactive: 6.64% |
| COc1cc(Cl)c(C)cc1NS(=O)(=O)c1c(C)nc2sccn2c1=O |  | inactive: 1.34% |
| COc1ccc(C2=C(C)C(=O)N(Cc3ccc(C(=O)Nc4ccc(C)c(C)c4)cc3)S2(=O)=O)cc1 | inactive |  |
| CCOC(=O)CCn1cnc2onc(-c3ccccc3Cl)c2c1=O |  | inactive: -7.51% |
| COc1cc(OC)cc(-c2cc3nc(C)c(CCC(=O)Nc4ccc(F)c(Cl)c4)c(C)n3n2)c1 |  | inactive: -3.39% |
| O=C1c2[nH]nc(-c3ccccc3O)c2C(c2ccc(Cl)cc2)N1CCc1ccccc1 (stereo not given) |  | inactive: -6.32% |
| Cn1c(=O)cc(OCC(=O)N2CCN(c3ccc(F)cc3)CC2)c2ccccc21 | inactive |  |
| CC(C)c1ccc(NC(=O)C(NS(=O)(=O)c2ccc3c(c2)CCC(=O)N3)c2ccccc2)cc1 (stereo not given) |  | inactive: 2.46% |
| CCOc1ccccc1Nc1ncnc2c1c(-c1ccccc1)cn2-c1ccc(OC)cc1 |  | inactive: -5.75% |
| CCOCN(C(=O)Cn1c(CC(C)C)nc2ccccc21)c1c(C)cccc1CC |  | inactive: 2.47% |
| O=C(CSCc1cnn(-c2ccccc2)c1-n1cccc1)NCc1ccccc1Br |  | inactive: 0.114% |
| CCc1ccc(NC(=O)COCc2cc(-c3ccc(F)cc3)on2)cc1 |  | inactive: 0.621% |

| Compound | outcome | activity change, negative = inhibition |
| --- | --- | --- |
| O=S(=O)(c1ccccc1)c1nc(-c2ccccc2)oc1N1CCN(c2cccc(Cl)c2)CC1 | inactive |  |
| Cc1ccc(-c2cn3cccnc3n2)cc1NC(=O)Cc1ccccc1 |  | inactive: -1.68% |
| Cc1c(Cl)cccc1NC(=O)C(C)N(c1ccccc1)S(C)(=O)=O (stereo not given) | inactive |  |
| Cc1cc(C)cc(NC(=O)c2ncn(-c3ccccc3)n2)c1 |  | inactive: 6.14% |
| Cc1ccc(-c2nn3c(=O)cc(CN4CCN(S(=O)(=O)c5ccc(Cl)cc5)CC4)nc3s2)cc1 |  | inactive: 7.58% |
| COc1ccc(CNC(=O)c2ccc3c(c2)CCN3S(=O)(=O)c2ccc(Cl)cc2)cc1 |  | inactive: 11.1% |
| O=C(COc1ccc(F)cc1)NC1CC(=O)N(c2ccc3c(c2)OCCO3)C1 (stereo not given) |  | inactive: 5.54% |
| COc1cccc(NC(=O)C2CCN(c3cc(C)nc4c(-c5ccc(Cl)cc5)c(C)nn34)CC2)c1 | inactive |  |
| CCOC(=O)c1c(C)[nH]c(C)c1S(=O)(=O)N1CCN(c2ccc(Cl)cc2)CC1 |  | inactive: 9.58% |
| CC(=O)N1c2ccc(S(=O)(=O)NCC3CCC(C(=O)Nc4ccc(F)cc4)CC3)cc2CC1C (stereo not given) |  | inactive: -2.62% |
| CCc1ccccc1-n1c2c(cc(-c3nc(-c4ccc(Cl)cc4)cs3)c1=O)C(=O)CC(C)(C)C2 |  | inactive: -3.03% |
| COc1ccc(Cc2nc3ccc(C(=O)NCCc4ccccc4)cc3o2)cc1 |  | inactive: -8.54% |
| CC(=O)Nc1ccc(NC(=O)Cn2c(=O)ccc3cc(S(=O)(=O)N4CCC(C)CC4)ccc32)cc1 |  | inactive: -22.5% |
| CC(NC(=O)C1=Cc2ccccc2OC1)c1ccccc1 (stereo not given) |  | inactive: 1.3% |
| COc1cc2nc(SCC(=O)Nc3cccc(C)c3)n3nc(CCn4c(C)nc5ccccc54)nc3c2cc1OC |  | inactive: 3.34% |
| CCOc1ccc(OCC)c(NS(=O)(=O)c2ccc3[nH]c(=O)ccc3c2)c1 |  | inactive: -2.27% |
| COC[C@@H](c1ccc(C(F)(F)F)cc1)N1CCN(C2(C)CCN(C(=O)c3c(C)ncnc3C)CC2)C[C@H]1C |  | inactive: 0.598% |
| Cc1cc(-c2ccc(S(=O)(=O)Nc3cccc(Cl)c3C)cc2)on1 | inactive |  |
| CCOc1ccc(NC(=O)CN(C)S(=O)(=O)c2ccc3[nH]c4c(c3c2)CCCC4)cc1 |  | inactive: 5.82% |
| COc1ccc(C(=O)N2CCN(c3nc4c(C)c(Cl)ccc4s3)CC2)c(OC)c1 |  | inactive: -3.42% |

| Compound | outcome | activity change, negative = inhibition |
| --- | --- | --- |
| CCC(C(=O)NCCc1ccc(Cl)cc1)n1ccc2cc(S(=O)(=O)N3CCCCC3)ccc21 (stereo not given) |  | inactive: -11.2% |
| COc1ccc(CCNC(=O)C(=O)NCC(c2cccnc2)N2CCN(c3ccccc3)CC2)cc1 (stereo not given) |  | inactive: 2.97% |
| CCc1ccc(CNC(=O)c2ccc(CS(=O)(=O)Cc3cccc(C)c3)o2)cc1 |  | inactive: 4.19% |
| O=C(NCc1ccc(Cl)cc1)c1ccc2c(c1)N(Cc1ccccc1F)C(=O)c1ccccc1S2=O (stereo not given) |  | inactive: 6.01% |
| Cc1ccc(NC(=O)Cn2c(=O)ccc3cc(S(=O)(=O)N4CCCC4)ccc32)cc1N(C)C |  | inactive: -12.1% |
| O=C(c1ccc(Cl)cc1)c1cn(Cc2ccccc2)c2cc3c(cc2c1=O)OCCO3 |  | inactive: -0.887% |
| Cc1cc(C(=O)Nc2cccc(C)c2C)c2c(C)nn(-c3cccc(F)c3)c2n1 |  | inactive: 7.34% |
| COc1ccc(N(C)C(=O)c2cc3c(s2)-c2ccccc2OC3)cc1 |  | inactive: -12.6% |
| CCCCNc1nc2c(c(=O)n(Cc3ccccc3)c(=O)n2C)n1C |  | inactive: 13.2% |
| Cc1ccc(NC(=O)C2CCCN(S(=O)(=O)c3ccc4c(c3)CCCC(=O)N4)C2)cc1Cl (stereo not given) |  | inactive: -9.46% |
| COc1cccc(-c2ccc3c(N)c(C(=O)Nc4ccccc4C)sc3n2)c1 |  | inactive: -27.4% |
| COc1cccc(NC(=O)CCN2CCN(CCO)CC2)c1 |  | inactive: 1.41% |
| CCCCNC(=O)c1ccc2c(c1)NC(=O)C(CS(=O)(=O)Cc1ccc(F)cc1Cl)N2 (stereo not given) |  | inactive: 2.36% |
| O=C(NCc1ccco1)c1ccc2c(c1)N(Cc1ccccc1F)C(=O)c1ccccc1S2(=O)=O |  | inactive: 6.39% |
| CCn1c(=O)cc(SCC(=O)NCc2ccc(C)cc2)c2ccccc21 |  | inactive: -10.1% |
| CCOc1ccccc1-c1nc(C(N)=O)c2c(n1)n(-c1ccc3c(c1)OCO3)c(=O)n2C | inactive |  |
| CC(=O)Nc1ccc(S(=O)(=O)N(Cc2ccccc2)Cc2ccccc2)cc1 |  | inactive: 9.12% |
| COc1ccc(C)cc1NC(=O)Cc1c(C(=O)O)c(C)cn1C | inactive |  |
| Nc1ccc2oc(Cc3ccc(Cl)cc3)nc2c1 |  | inactive: -9.21% |
| COCCNc1ccc(-c2nc(-c3ccccn3)no2)cc1[N+](=O)[O-] | inactive |  |
